Publication PMC4336329 (PLoS ONE, 2015)
The whole screen tested about 310,000 compounds, of which about 14,000 (4.5%) showed an effect of 50% or more. Effects have a minus sign here. The list shows a part of the results.

target: human ether-à-go-go-related gene (hERG) potassium channel (human, UniProt Q12809); assay: primary screen, population patch clamp on CHO cells stably expressing hERG
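Also: peak tail current of the secondary pulse compared with the same well before compound.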

human ether-à-go-go-related gene (hERG) potassium channel, sequence (Q12809 whole entry, looked up): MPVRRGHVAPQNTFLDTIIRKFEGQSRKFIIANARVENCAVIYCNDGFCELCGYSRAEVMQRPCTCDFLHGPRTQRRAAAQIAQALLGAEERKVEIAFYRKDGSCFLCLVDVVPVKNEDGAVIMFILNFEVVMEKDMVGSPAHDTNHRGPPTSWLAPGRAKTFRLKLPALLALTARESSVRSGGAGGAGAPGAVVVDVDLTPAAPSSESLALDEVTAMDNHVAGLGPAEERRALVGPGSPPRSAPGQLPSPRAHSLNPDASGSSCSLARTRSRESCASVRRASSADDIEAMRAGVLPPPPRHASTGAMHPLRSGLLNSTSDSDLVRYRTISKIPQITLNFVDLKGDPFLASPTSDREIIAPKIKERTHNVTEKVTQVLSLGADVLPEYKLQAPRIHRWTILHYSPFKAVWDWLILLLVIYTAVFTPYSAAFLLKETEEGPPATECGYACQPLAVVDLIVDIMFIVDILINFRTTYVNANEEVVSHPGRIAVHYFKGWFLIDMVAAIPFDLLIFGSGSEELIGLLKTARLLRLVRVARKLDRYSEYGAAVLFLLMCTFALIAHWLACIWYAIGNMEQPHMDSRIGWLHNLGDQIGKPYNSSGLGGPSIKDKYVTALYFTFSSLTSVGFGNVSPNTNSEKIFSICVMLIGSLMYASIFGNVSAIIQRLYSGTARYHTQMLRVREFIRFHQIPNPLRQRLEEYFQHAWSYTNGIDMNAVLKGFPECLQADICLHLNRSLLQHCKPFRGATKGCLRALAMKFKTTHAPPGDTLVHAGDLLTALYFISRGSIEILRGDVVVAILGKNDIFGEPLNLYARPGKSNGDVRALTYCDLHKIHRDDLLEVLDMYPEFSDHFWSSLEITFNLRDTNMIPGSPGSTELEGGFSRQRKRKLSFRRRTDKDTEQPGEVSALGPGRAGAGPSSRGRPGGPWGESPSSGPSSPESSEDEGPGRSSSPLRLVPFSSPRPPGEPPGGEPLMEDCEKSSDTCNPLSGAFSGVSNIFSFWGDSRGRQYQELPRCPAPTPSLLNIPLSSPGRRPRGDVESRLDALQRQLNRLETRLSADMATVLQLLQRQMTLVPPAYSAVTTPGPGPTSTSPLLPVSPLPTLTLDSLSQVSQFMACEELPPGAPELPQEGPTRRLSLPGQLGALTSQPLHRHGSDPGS

Row | Compound | hERG current change (%, negative = inhibition) at 10uM
1 | CN(C(=S)Nc1ccc(F)cc1)C1(c2ccccc2Cl)CCCCC1=O (stereo not drawn) | -4.67%
2 | Cl.c1ccc(-c2cc(-c3ccc(N4CCOCC4)cc3)nc3ccccc23)cc1 | 4.95%
3 | CC1=NN(c2ccccc2)C(=O)C1C=Nc1ccccc1O (stereo not drawn) | 4.96%
4 | CCn1cnc2scc(-c3ccc(OC)cc3)c2c1=O | 1.82%
5 | CCn1c(SCC(=O)Nc2ccc(C(C)=O)cc2)nc2nc3c(cc2c1=O)CCCC3 | -20.5%
6 | O=C1[C@H](CC[C@H](O)c2ccc(F)cc2)[C@@H](c2ccc(O)cc2)N1c1ccc(F)cc1 | -7.87%
7 | CCCc1cc(=O)[nH]c(SCC(=O)N(CC)c2c(N)n(Cc3ccccc3)c(=O)[nH]c2=O)n1 | 18%
8 | Cc1ccc2c(c1)COc1c3ccc(C(=O)NCCO)cc3nn1-2 | 1.96%
9 | O=C(NNC(=O)c1ccncc1)NC1CCCCC1 | 39.6%
10 | CCSc1ccccc1C(=O)Nc1ccc(S(=O)(=O)NC(C)=O)cc1 | 7.71%
11 | O=C(NCC1CCCO1)C12CN(Cc3ccccc3)CC1C(c1cccc([N+](=O)[O-])c1)=NO2 (stereo not drawn) | -45.2%
12 | CCn1cc(CNC(=O)CCSc2nc(-c3ccco3)cc(C(F)(F)F)n2)cn1 | -9.22%
13 | C/C(=N/Nc1ccc(C(=O)O)cc1)c1ccc(O)c(O)c1O | 5.77%
14 | Cc1cccc(CCNS(=O)(=O)c2ccc(S(=O)(=O)N3CCCCC3)cc2)c1 | -0.315%
15 | C=C(C)C(=O)Nc1cccc(C2=NOC3(C2)C[C@@H](C(N)=O)N(C(=O)CCCCC)C3)c1 (stereo partly drawn) | -23.8%
16 | CC(=O)NS(=O)(=O)c1ccc(N=NN2CCOCC2)cc1 | -1.2%
17 | O=C(NNC(=O)C1C2C=CC(C2)C1C(=O)O)c1ccccc1 (stereo not drawn) | 26.2%
18 | O=C(NC1CCCC1)c1cc2c(ccc3ccccc32)o1 | 8.26%
19 | Cc1cccc(NS(=O)(=O)c2ccc(Br)s2)n1 | -3.96%
20 | Cc1sc2nc[nH]c(=S)c2c1-c1ccccc1 | 17.4%
21 | COc1cccc(C(=O)NOCc2ccccc2)c1OC | 0.772%
22 | Cc1ccc(S(=O)(=O)Oc2ccc(/C=N/NC(=O)c3ccncc3)cc2)cc1 | -3.34%

Row | Compound | hERG current change (%, negative = inhibition) at 10uM
23 | COCCN(C(=O)COC(=O)c1cccc2ccccc12)c1c(N)n(Cc2ccccc2)c(=O)[nH]c1=O | -0.159%
24 | S=c1nc(-c2ccccc2Br)[nH][nH]1 | 18.9%
25 | CCCCOc1ccc(/C(O)=C2/C(=O)C(=O)N(CCCOC)C2c2ccncc2)cc1C (stereo not drawn) | -5.25%
26 | Cc1cc2cc(CNC(=O)c3ccc(S(=O)(=O)N4CCOCC4)cc3)ccc2n1C | 13.1%
27 | COC(=O)c1cc(Br)cn1S(=O)(=O)c1ccccc1 | 10.4%
28 | COc1ccc(CC(=O)NNC(=O)Cc2ccc(OC)cc2)cc1 | 41.5%
29 | Cc1ccccc1C(=O)NCC(=O)OCCCOC(=O)CNC(=O)c1ccccc1C | 1.25%
30 | C=CCn1c(SCC(=O)Nc2ccc3c(c2)OCO3)nnc1-c1ccccc1OC | -7.02%
31 | CCCCn1c(N)c(N(CC)C(=O)c2ccc(C#N)cc2)c(=O)[nH]c1=O | 19.5%
32 | COC(=O)C1CCN(C(=O)c2ccccc2NC(C)=O)CC1 | 16.8%
33 | Cn1c(=O)c2ncn(CC(=O)Nc3ccc4c5c(cccc35)CC4)c2n(C)c1=O | -0.241%
34 | Cc1c(-c2ccccc2)oc2c(C(=O)OCC(=O)Nc3cccc(F)c3)cccc2c1=O | -16.3%
35 | O=C(NC1CCSC1=O)C1CC(=O)N(c2ccc(F)cc2)C1 (stereo not drawn) | 13.9%
36 | CC(CCc1ccccc1)NCc1cccc2ccccc12.O=C(O)C(=O)O (stereo not drawn) | -60.9%
37 | Cc1cccc(/C(N)=N/OC(=O)Cc2cccc3ccccc23)c1 | 11.1%
38 | OC(CSc1ccccc1Cl)CN1CCN(c2ccccc2F)CC1 (stereo not drawn) | -30.7%
39 | O=C(O)c1ccc(CSc2nc3ccc(N4C(=O)C5C6C=CC(C6)C5C4=O)cc3s2)cc1 (stereo not drawn) | -23.6%
40 | CCc1ccc(N(C(=O)c2snc(C(N)=O)c2N)C(C(=O)NC2CCCC2)c2ccncc2)cc1 (stereo not drawn) | 12.4%
41 | O=C(NC(=S)Nc1ccc2oc(-c3ccncc3)nc2c1)c1ccccc1F | 13.6%
42 | Cc1ccc(NC(=O)CSCC(=O)NC2(C)CCS(=O)(=O)C2)cc1 (stereo not drawn) | 5.44%
43 | Cc1cc(-c2ccc(S(=O)(=O)N3CCN(c4ccccc4F)CC3)s2)on1 | 15.8%
44 | NNC(=O)Cn1c(COc2ccc(Cl)cc2)nc2ccccc21 | -9.34%

Row | Compound | hERG current change (%, negative = inhibition) at 10uM
45 | Cc1ccc(NC(=O)COc2ccc(Br)cn2)cc1 | 15.9%
46 | Cc1oc(-c2ccccc2)nc1CN1C(=O)C(C)N=C(c2ccccc2F)c2cc(Cl)ccc21 (stereo not drawn) | -5.78%
47 | O=C(NCC1CCCO1)C1c2ccccc2C(=O)N1C1CCCCCC1 (stereo not drawn) | -10.5%
48 | CCCC1(C(=O)O)NC(c2cccc(OC)c2O)C2C(=O)N(c3ccccc3)C(=O)C21 (stereo not drawn) | -1.3%
49 | COc1ccc(F)cc1CN1CCN(CC(=O)N2CCc3ccccc32)CC1 | -48.1%
50 | CCCOc1ccccc1N1C(=O)CC(N(O)c2ccccc2)C1=O (stereo not drawn) | 7.17%
51 | O=C(NCC1CCCO1)c1onc(CSc2ccc(Cl)cc2)c1C(=O)O (stereo not drawn) | 14.4%
52 | Cc1cccc(NC(=O)c2cc(C)nc3ccccc23)c1 | 14.7%
53 | Cc1c(C(=O)N2CCN(C)CC2)oc2c1C(=O)CC(C)(C)C2 | 4.7%
54 | Cc1cc(OCc2cc(C(=O)NCc3cc(C(C)C)no3)no2)cc(C)c1Cl | 9.79%
55 | Cn1c(=O)c2c(ncn2C)n(C)c1=O | 10.1%
56 | O=C(NCCCN1CCCC1=O)c1ccc(S(=O)(=O)Nc2ccccc2)cc1 | 0.806%
57 | CCS(=O)(=O)N1Cc2ccccc2CC1C(=O)Nc1ccc(OC)cc1 (stereo not drawn) | 6.83%
58 | CSc1cccc(NC(=O)CN(C)S(=O)(=O)c2ccc(C)cc2)c1 | -32.8%
59 | N#CC1=C(N)Oc2cc(O)ccc2C1C1CCCCC1 (stereo not drawn) | 9.66%
60 | COc1ccc(N(CC(=O)N2CCCCC2)S(=O)(=O)c2ccccc2)c(OC)c1 | 2.74%
61 | COC(=O)c1cc(C)sc1NC(=O)C1CC(=O)NN1Cc1ccccc1 (stereo not drawn) | -17.3%
62 | CC(=O)NN1C(=O)c2ccccc2NC1c1ccoc1 (stereo not drawn) | 14.1%
63 | CCC1NC(=S)N(C2CCCCC2)C1=O (stereo not drawn) | 2.1%
64 | Cc1ccc(S(=O)(=O)N2CCOC2CNC(=O)C(=O)NCCc2c[nH]c3ccccc23)cc1 (stereo not drawn) | -27.2%
65 | COc1cc(C(CCN2CCCC(C)C2)c2c(OC)cc(OC)c3c(-c4ccccc4)cc(=O)oc23)cc(OC)c1OC (stereo not drawn) | -38.7%
66 | CCOC(=O)c1sc(=NC(=O)c2ccc(F)cc2)n(C)c1C | 10.6%

Row | Compound | hERG current change (%, negative = inhibition) at 10uM
67 | O=C(CNC(=O)c1ccco1)OCC(=O)c1ccc(Cl)cc1Cl | 5.54%
68 | Cc1ccccc1NC(=O)C1CCC(C)(C(=O)O)C1(C)C (stereo not drawn) | 21.6%
69 | O=C(COC(=O)CNC(=O)C1CCCCC1)NCc1ccccc1 | -0.223%
70 | CCOC(=O)c1cc2occc2n1CC(=O)Nc1ccc(OC)cc1OC | -15%
71 | c1ccc2c(c1)[nH]c1c(N3CCCC3)ncnc12 | -15.2%
72 | COc1cc(/C=N/O)ccc1Oc1ccc([N+](=O)[O-])cc1[N+](=O)[O-] | -45.9%
73 | C/C(CC(=O)Nc1ccc(C)c(Cl)c1)=N\NC(=O)C1CCCCC1 | 7.46%
74 | O=C1CCc2cc(S(=O)(=O)NCc3ccc(F)cc3)cc3c2N1CCC3 | -10.8%
75 | COc1ccc(OCCOc2ccc(S(=O)(=O)N3CCCC3)cc2C(N)=O)cc1 | -9.45%
76 | CCOC(=O)c1sc(NC(=O)c2c(OC)cccc2OC)nc1C | -0.673%
77 | CC(C)CC(=O)Nc1ccc2c(c1)oc1ccccc12 | 3.1%
78 | C=CCSc1n[nH]c(-c2ccc(OCCCC)cc2)n1 | -7.32%
79 | COc1ccc(Cl)cc1C(=O)OCC(=O)N(C)CC(=O)Nc1ccc(F)cc1 | -13.1%
80 | CCc1ccc(NC(=O)[C@H](Cc2ccccc2)NC(=O)C2CCN(C(=O)[C@@H](N)CC(C)C)CC2)cc1 | -6.14%
81 | COCCCn1c(SCC(=O)N2CCc3ccccc32)nnc1-c1ccco1 | -31.6%
82 | COc1cccc(CNC(=O)CN2c3cccc4cccc(c34)S2(=O)=O)c1 | -10.2%
83 | O=C(COC(=O)c1cccc(S(=O)(=O)N2CCN(c3ccccc3)CC2)c1)NCc1ccco1 | 0.98%
84 | O=C(CCN1C(=O)/C(=C/c2ccccc2Cl)SC1=S)NN1CCOCC1 | 6.46%
85 | CCc1ccc(C(=O)COC(=O)c2cccs2)cc1 | 1.91%
86 | COc1ccc(C(=O)NCc2nnc(SCC(=O)Nc3cccc(OC)c3)o2)cc1 | -1.25%
87 | CN(CC(=O)N1CCCCCC1)S(=O)(=O)c1ccc(Br)s1 | -9.92%
